# Measurements: PubChem BioAssay AID488969 (Vanderbilt High Throughput Screening Facility, 2010)
# The full ranking holds about 110,000 compounds; the median of “z-score” is about -0.1, and the highest 2% start at about 2. Some of the results follow.
# Target: Metabotropic glutamate receptor 8 (Rattus norvegicus) (UniProt P70579)
# Experiment: mGluR8 Gi/Go-coupled signaling modulation – cell-based, rat, thallium flux, HTS, primary screen (AID 488969)
# Conditions: HEK293 rat mGluR8, GIRK (G protein-gated inwardly rectifying potassium channel) thallium flux, FluoZin2; at 10 µM; stronger effect = higher value; submaximal glutamate (EC20) added with thallium
# Sequence of UniProt P70579 (P70579 whole entry, looked up): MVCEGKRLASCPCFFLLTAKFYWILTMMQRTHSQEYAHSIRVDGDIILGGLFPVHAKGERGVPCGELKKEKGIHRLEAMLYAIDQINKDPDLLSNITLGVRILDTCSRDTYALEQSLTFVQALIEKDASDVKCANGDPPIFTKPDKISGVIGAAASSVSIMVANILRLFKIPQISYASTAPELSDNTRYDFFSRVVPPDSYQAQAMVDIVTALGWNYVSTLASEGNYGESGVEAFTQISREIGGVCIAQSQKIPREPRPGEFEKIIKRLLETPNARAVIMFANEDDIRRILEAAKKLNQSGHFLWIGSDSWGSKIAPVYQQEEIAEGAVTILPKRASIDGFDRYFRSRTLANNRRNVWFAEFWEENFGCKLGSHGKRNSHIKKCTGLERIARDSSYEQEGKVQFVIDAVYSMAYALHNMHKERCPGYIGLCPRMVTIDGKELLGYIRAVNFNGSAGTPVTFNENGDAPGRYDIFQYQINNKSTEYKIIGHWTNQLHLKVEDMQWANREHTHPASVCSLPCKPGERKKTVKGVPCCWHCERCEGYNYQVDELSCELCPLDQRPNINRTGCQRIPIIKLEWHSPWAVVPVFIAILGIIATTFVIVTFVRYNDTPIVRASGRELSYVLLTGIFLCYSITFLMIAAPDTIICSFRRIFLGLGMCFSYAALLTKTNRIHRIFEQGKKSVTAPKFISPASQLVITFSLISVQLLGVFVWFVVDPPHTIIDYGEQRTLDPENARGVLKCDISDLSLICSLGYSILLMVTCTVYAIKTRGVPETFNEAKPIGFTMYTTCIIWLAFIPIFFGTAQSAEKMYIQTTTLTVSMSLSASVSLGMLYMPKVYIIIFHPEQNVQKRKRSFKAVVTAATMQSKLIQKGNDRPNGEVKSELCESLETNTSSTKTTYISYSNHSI
row,Structure (SMILES),z-score
1,O=C(NCCOCC(F)(F)C(F)F)c1cc(F)c(F)cc1Cl,0.363
2,COc1ccccc1Cn1c(-c2ccco2)nc2nc3ccccc3nc21,0.295
3,CCN1CCc2c(sc(N)c2C#N)C1,0.055
4,Cc1ccc(NS(=O)(=O)c2cc([N+](=O)[O-])ccc2NNC(=S)Nc2cc(C)ccc2C)c(C)c1,-1.28
5,O=C1CC(c2ccco2)Cc2nc(Nc3nc(-c4ccccc4)c4ccccc4n3)ncc21 (stereo not drawn),-0.969
6,CCOc1ccc(S(=O)(=O)N(CC)CC)cc1NS(=O)(=O)c1ccc(F)c(F)c1F,-0.454
7,CC(C)c1cc(C(=O)N/N=C/C=C/c2ccccc2)n[nH]1,-0.67
8,Cc1cccc2cc(CN(Cc3nnnn3C3CCCCC3)C3CCCC3)c3nnnn3c12,-0.708
9,CCCn1nc2cc(C(=O)NCC34CC5CC(CC(C5)C3)C4)ccc2c1OCC,-0.14
10,CC(C)OCCCNC(=O)c1cc2c(=O)n(C)c3ccccc3c2n1C,-0.527
11,Cn1ncc2c1ncn1nc(CCc3ccccc3)nc21,-0.114
12,CCCn1c(N)nc2ccccc21,-0.0817
13,COc1ccc(CCNC2=C(Cl)C(=O)N(CCc3ccccc3)C2=O)cc1OC,-0.435
14,Cn1nc(-c2ccccc2)c(C(=O)Nc2ccc(Cl)cc2)c1Cl,-0.313
15,CCN(Cc1ccccc1)S(=O)(=O)c1ccc(S(=O)(=O)N(Cc2ccccn2)Cc2ccco2)cc1,0.274
16,Cc1c(C(=O)N2CCOCC2)oc2ccc(S(=O)(=O)N3CCCC3)cc12,0.0159
17,Cc1ccc2nc(/C(C#N)=C\c3ccc(OC(=O)c4cccs4)cc3)[nH]c2c1,-0.0744
18,S=C(c1ccc(Br)cc1)N1CCN(Cc2ccccc2)CC1,-0.0404
19,CCO/C=C/C(O)(CNC(=O)c1ccc(C(C)(C)C)cc1)C(F)(F)F (stereo not drawn),0.609
20,COc1ccc(-c2noc(CN(C(=O)c3ccc(OC(C)=O)cc3)C(C)C)n2)cc1OC,-0.302
21,Cc1cccc(CN2CCN(C(=O)c3ccccc3F)CC2)c1,-0.00448
22,O=C(NC1CCCC1)c1ccc(CNc2c(N3CCOCC3)c(=O)c2=O)cc1,-0.273

row,Structure (SMILES),z-score
1,O=S(=O)(/N=C(/Nc1cc(N2CCOCC2)ncn1)c1ccc(F)cc1)c1ccccc1,0.0735
2,CC1(C)CC(=O)C2=C(C1)N(c1cccc(Cl)c1)C(=O)NC2(C(F)(F)F)C(F)(F)F,-0.549
3,CCC(C)n1c(SCC(=O)/C(C#N)=C(\C)N)nc2ccccc2c1=O (stereo not drawn),0.427
4,Cc1ccc(C2CC(c3ccco3)n3ncnc3N2)cc1 (stereo not drawn),0.207
5,CN(C(=O)c1c(Cl)cnn1C)C12CC3CC(CC(C3)C1)C2,0.0934
6,COc1ccc(/C=N/Nc2cc(C)nc(-n3nc(C)cc3C)n2)cc1,-0.0167
7,CC(C)c1nc(N2CCCC2)c(C#N)c2c1CCCC2,0.908
8,Cc1ccc(S(=O)(=O)Nc2ccc3ncccc3c2)cc1,0.627
9,O=C(NCCc1ccccc1)c1cnn2c(C(F)F)cc(C3CC3)nc12,-1.35
10,CCn1c(CNC(=O)COc2ccc(C(C)C)cc2)nnc1SCC(=O)NC1CCCCC1C (stereo not drawn),-0.145
11,CCOC(=O)Cn1c(-c2ccc(Cl)nc2)nc2ccccc21,0.0162
12,Cc1ccc(SCc2cc(-c3ccc(Cl)cc3)no2)cc1,-0.142
13,C=CCc1cc(C=O)cc(OC)c1OCc1ccc(Cl)cc1,0.88
14,CC1CCN(C(=O)C2CCN(CC(C)c3ccccc3)CC2)CC1 (stereo not drawn),0.75
15,Nc1ccccc1NC1=CC(=O)CC(c2ccco2)C1 (stereo not drawn),1.27
16,O=C1CCN2C=Nc3cccc4ccc1c2c34,-1.06
17,COc1ccc(CCNC(=O)CCN2C(=O)C(C)Oc3ccc(C)cc32)cc1OC (stereo not drawn),-0.462
18,CC(CNC(=O)c1ccc(Br)o1)NC(=O)c1ccc(Br)o1 (stereo not drawn),0.235
19,CC(Oc1ccc(Cl)cc1Cl)C(=O)NNC(=O)C(=O)N1CCCCC1 (stereo not drawn),-1.87
20,COCc1nnc(NC(=O)CCCOc2ccccc2)s1,0.0976
21,O=C(O)c1ccccc1-c1ccccc1C(=O)Nc1cccc2ccccc12,-0.0773
22,CCCOc1ccc(CSCCNC(=S)Nc2ccccc2)cc1,0.264

row,Structure (SMILES),z-score
1,Cc1ccc2nc3sc(C(=O)NCc4ccco4)c(N)c3cc2c1,-0.222
2,O=C(CN1CCN(Cc2ccc(F)cc2Cl)C1=O)NCCc1ccccc1,-0.186
3,CCOC(=O)c1ccc(NS(=O)C23CC4CC(CC(C4)C2)C3)cc1 (stereo not drawn),-0.789
4,CCOC(=O)c1nn(-c2ccc(C)cc2)c(=O)c2c(N)scc12,-0.401
5,Nc1nc(SCC(=O)NCCN2CCOCC2)nc2sc3c(c12)CCC3,-0.356
6,O=C(CSc1ccc(-c2ccc(F)cc2)nn1)NCc1ccco1,-0.746
7,CCOC(=O)C1=C(CN2CCCCC2)NC(=O)NC1c1cc(C)ccc1C (stereo not drawn),-0.177
8,Cc1ccc(C(=O)NCC2CCCO2)cc1[N+](=O)[O-] (stereo not drawn),0.0557
9,Cc1cccc(-n2ccnc2SCC(=O)Nc2ccc3c(c2)OCCO3)c1,-0.62
10,O=C(O)CN1C(=O)CC(Cc2ccccc2)C1=O (stereo not drawn),0.156
11,COC(=O)c1cc(NCc2c(F)cccc2Cl)ccc1N1CCOCC1,-0.226
12,O=C(NC1CCS(=O)(=O)C1)c1cccc(S(=O)(=O)N2CCCCC2)c1 (stereo not drawn),-0.566
13,COc1ccc(/C=N/NC(=O)c2cccc([N+](=O)[O-])c2)cc1OC(=O)c1ccc(C)cc1,-0.203
14,COc1ccc(OC)c(-c2cn(S(=O)(=O)c3ccccc3)nc2N)c1,-0.12
15,O=C(C=C1CCN(c2ncc(C(F)(F)F)cc2Cl)CC1)NNC(=O)Nc1ccc(Cl)cc1,0.178
16,CCC(C)(C(=O)NC1CCCC1)N(C(=O)c1cnccn1)c1c(C)n(C)n(-c2ccccc2)c1=O (stereo not drawn),0.652
17,CC(=O)Nc1ccc(N2CCCCC2)cc1,-0.251
18,O=C(O)CSc1ncccc1C(=O)O,-1.44
19,CC1(C)CC2(CCO1)OC(=O)CC2C(=O)Nc1cccc2ccccc12 (stereo not drawn),-0.378
20,O=C(O)CC(SCc1ccc(C(=O)O)o1)C(=O)O (stereo not drawn),-0.0482
21,Cn1c(=O)c2c(nc(CN3CCN(Cc4ccccc4)CC3)n2Cc2ccc(Cl)cc2)n(C)c1=O,0.453
22,O=C(COC(=O)c1ccc([N+](=O)[O-])o1)Nc1cccc(S(=O)(=O)N2CCOCC2)c1,-0.207

row,Structure (SMILES),z-score
1,CCOC(=O)c1c(N)sc(-c2ccccc2)c1C,-0.229
2,COCCCNCCOCCOc1ccc(Cl)cc1C(C)(C)C,0.597
3,Cc1nn(-c2ccc(F)cc2)c2sc(C(=O)N3CCCCCC3)cc12,-0.274
4,FC(F)(F)c1cc(NCc2cccs2)n2ncnc2n1,0.0172
5,OC(COc1c(F)cc(Br)cc1F)CN1CCN(c2ccc(F)cc2)CC1 (stereo not drawn),-0.815
6,CC(C)CCOc1ccc(C(=O)O)cc1,-0.278
7,CC(C)(Oc1ccc(Cl)cc1)C(=O)N1CCN(c2ccccn2)CC1,-0.0555
8,O=C(NO)c1ccc(C(=O)N(C2CCCCC2)C2CCCCC2)cc1,0.41
9,COCCNc1c([N+](=O)[O-])c(=O)n(-c2ccccc2)c2ccccc12,-0.382
10,O=C(CSc1cnc2ccccc2n1)NC1CCCC1,-0.494
11,COc1cc(CCC(=O)OCC(=O)Nc2nc(C)c(Cl)cc2Cl)cc(OC)c1OC,-0.356
12,O=C(NCC(=O)N(c1ccccc1)C(C(=O)NC1CCCC1)c1cccnc1)c1cccs1 (stereo not drawn),-0.00843
13,COc1ccc(OC)c(CN2C(=O)CCC2(C)C(=O)NC2CCCCCC2)c1 (stereo not drawn),1.12
14,CCn1c(SCC(=O)NC(C)(C)C)nnc1-c1ccoc1C,0.155
15,O=C(Nc1ccc(Cl)cc1)c1cc2nc(C3CC3)cc(C(F)(F)F)n2n1,-0.433
16,CC(=O)C(C)Oc1cc(C)cc2oc(=O)c(C)c(C)c12 (stereo not drawn),-0.115
17,CCOC(=O)c1cnn2c(C(F)(F)F)cc(-c3cn(C)nc3C)nc12,-0.477
18,Cc1cc(NC(=O)CN2C(=O)NC(C)(c3ccccc3)C2=O)no1 (stereo not drawn),-0.0496
19,CC(=O)OCC(=O)Nc1ccc(N=Nc2ccccc2)cc1,0.277
20,COCCSc1ccccc1C(=O)Nc1cc(C)ccn1,-0.869
21,COc1cccc(/C=N/Nc2nc3ccccc3n3cnnc23)c1,0.123
22,COC(=O)c1cc(NC(=O)CC2SC(=Nc3ccccc3)N(CCc3c[nH]c4ccccc34)C2=O)cc(C(=O)OC)c1 (stereo not drawn),-0.15

row,Structure (SMILES),z-score
1,Cc1nc(SCC(=O)OCc2ccccc2)c2c(=O)n(C)c(=O)n(C)c2n1,-0.454
2,CCOc1cc(/C=C2/N=C(c3ccc(C(C)(C)C)cc3)OC2=O)cc(Cl)c1OS(C)(=O)=O,1.16
3,CCCc1cc(=O)n2c(nc3ccccc32)[nH]1,-0.513
4,COc1cc(S(=O)(=O)N2CCOCC2)ccc1NC(=O)COC(=O)CC12CC3CC(CC(C3)C1)C2,0.016
5,CC(C)(Oc1ccc(Br)cc1)C(=O)N1CCc2ccccc21,0.00475
6,COc1ccc(O)c(/C=N/NC(=O)c2ccc(CSc3nc(C)cc(C)n3)cc2)c1,0.0894
7,CC(/C=C1\N=C(SCc2ccccc2)SC1=O)=C\c1ccccc1,0.253
8,CC(=O)N1CCN(c2ccccc2NC(=O)COc2ccc(Br)cc2)CC1,-1.84
9,CCOCCCNC(=O)c1c[nH]c2ccc(S(=O)(=O)Nc3cccc(OC)c3)cc2c1=O,-0.206
10,CN(CCOC(=O)C1c2ccccc2Oc2ccccc21)C(C)(C)C,0.442
11,Cc1ccc(C2CC(c3ccc(C)cc3)n3nc(N)nc3N2)cc1 (stereo not drawn),0.716
12,COc1ccc2c3c(cccc13)C(=O)N(O)C2=O,-0.149
13,CN(C)S(=O)(=O)N1CCN(CC(=O)Nc2cc(Cl)ccc2Cl)CC1,0.48
14,Cc1c(C)n(C(=O)CSc2nc3ccccc3[nH]2)c2ccccc12,0.855
15,Cc1ccc(C(=O)N/C(=C/c2ccc(Cl)cc2)C(=O)Nc2cccc(C(=O)O)c2)cc1,0.19
16,COc1ccc(OC)c(C2=NO[C@@H]3C(=O)N(c4cc(Cl)ccc4OC)C(=O)[C@H]23)c1,-0.133
17,CC(=O)NC(Cc1ccc(F)cc1)C(=O)N1CCN(C(=O)NCc2ccccc2)CC1 (stereo not drawn),-0.086
18,CCC(C)OC(=O)C1=C(C)NC(=O)NC1c1ccc(F)cc1 (stereo not drawn),-0.184
19,Cc1cccc(N2CC(C(=O)OCC(=O)c3ccc(OC(=O)c4cccs4)cc3)CC2=O)c1C (stereo not drawn),-0.149
20,COc1ccc(OCC(=O)NC(=S)N2CCCc3ccccc32)cc1,1.72
